Experimental data from publication PMC6919601, “Identification of Plasmodium dipeptidyl aminopeptidase allosteric inhibitors by high throughput screening” (PLoS ONE, 2019).
Out of some 110,000 compounds screened, about 230 (0.21%) showed an effect of 50% or more. This is one part of the list.

Molecular target: DPAP1 (Plasmodium falciparum, UniProt Q8IIJ9)
Assay: primary screen, percent inhibition; read by cleavage of a fluorogenic dipeptide substrate; higher = more effect of the substance
Parameters: species or system P. falciparum D10 trophozoite lysates; single well
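Further: 30 min substrate incubation versus DMSO and 10 µM JCP410 controls.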

DPAP1, sequence (Q8IIJ9 whole entry, looked up): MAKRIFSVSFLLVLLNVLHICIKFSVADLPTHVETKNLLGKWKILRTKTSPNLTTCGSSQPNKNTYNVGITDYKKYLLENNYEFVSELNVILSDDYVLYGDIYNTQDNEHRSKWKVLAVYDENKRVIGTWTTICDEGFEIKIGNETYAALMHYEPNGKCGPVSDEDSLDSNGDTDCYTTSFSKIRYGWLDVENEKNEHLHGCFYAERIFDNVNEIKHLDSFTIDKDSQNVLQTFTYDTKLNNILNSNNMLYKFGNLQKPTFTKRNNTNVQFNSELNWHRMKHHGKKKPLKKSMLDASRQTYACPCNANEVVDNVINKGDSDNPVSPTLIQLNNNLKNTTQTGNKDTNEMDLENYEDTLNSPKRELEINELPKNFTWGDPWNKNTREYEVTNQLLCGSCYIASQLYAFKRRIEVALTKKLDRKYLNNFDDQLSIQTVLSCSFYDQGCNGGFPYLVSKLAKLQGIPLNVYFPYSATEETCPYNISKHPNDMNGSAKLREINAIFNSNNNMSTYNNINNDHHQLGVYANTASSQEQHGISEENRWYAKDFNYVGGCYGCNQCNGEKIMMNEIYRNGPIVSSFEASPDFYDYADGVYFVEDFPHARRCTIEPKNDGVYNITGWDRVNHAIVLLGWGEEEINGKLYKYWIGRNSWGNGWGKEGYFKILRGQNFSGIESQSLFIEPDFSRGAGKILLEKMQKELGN

Compound	% Inhibition @ 10 uM
O=C(O)C12CC3CC(C1)CC(n1cncn1)(C3)C2	-4.49%
CCN(CC)S(=O)(=O)c1cc(OC)c(Cl)cc1OC	0.776%
C/C(=C\c1ccccc1)CN(CCN(C)C)Cc1ccccc1	-5.11%
CC(=O)Nc1ccc(S(=O)(=O)NC2CCCC2)cc1	-0.413%
CCCOc1ccc(NC(=O)OC2CCN(C)CC2)cc1	0.24%
C=CCn1c(S)nnc1CCn1c2ccccc2c2ccccc21	4.35%
CCNC(=O)C1COc2ccccc2O1 (stereo not shown)	5.01%
N#C/C(=C\c1cccs1)c1nc(-c2cccs2)cs1	-0.239%
CCN1C(=O)N/C(=C/c2ccc(O)c(OC)c2)C1=O	-5.45%
COc1cccc(OCC(O)CN2CCCCCC2)c1 (stereo not shown)	2.76%
CC(=O)c1c(C(C)=O)c(C)n(-c2nc(-c3ccc(Br)cc3)c(C)s2)c1C	0.778%
C(#Cc1ccccc1)CNCCc1c[nH]c2ccccc12	-1.52%
Cc1ccccc1CN1CCCN(C)CC1	-0.0404%
Cc1[nH]c2ccccc2c1C(=O)/C=C/c1cccnc1	-0.969%
Cn1c(=O)c2sccc2n2c(CCCC(=O)N3CCN(C4CCCCC4)CC3)nnc12	-5.39%
COc1ccc(-c2csc(/C(C#N)=C/c3ccc(O)cc3)n2)cc1	-4.58%
O=C(Cn1ncc2ccccc21)NCc1cccs1	3.29%
CC(C)C[C@H](NC(=O)c1ccc(-c2cc(Cl)sc2Cl)cc1)C(=O)NCC#N	1.35%
COCCNC(=O)CCCCCn1c(=O)[nH]c2ccsc2c1=O	-7.33%
Cc1nc(O)c2nnn(Cc3ccccc3)c2n1	-6.42%
Oc1cc(-c2ccccn2)[nH]n1	0.503%
CCc1ccccc1N(CC(=O)NC(C)(C)C)S(=O)(=O)c1ccc(C)cc1	9.34%
CC(=O)c1cccc(NC(=O)Nc2ccc(Cl)c(Cl)c2)c1	4.54%
C=CCNC(=O)c1ccc2c(c1)C1C3CCC(C3)C1C(c1ccccc1)N2 (stereo not shown)	2.44%
CCOC(=O)c1[nH]c2c(c1-c1ccccc1)C(=O)CC(c1ccc(OCC)cc1)C2 (stereo not shown)	-3.21%
COc1ccc2nc3sc(C(=O)N4CCN(c5ccccn5)CC4)cc3cc2c1	-0.426%

Compound	% Inhibition @ 10 uM
Cc1cc(OCC(=O)N2CCCCCC2)ccc1Cl	0.634%
COCCNC(=O)C1Sc2nnc(C)n2NC1c1ccc(Cl)cc1 (stereo not shown)	-5.41%
O=C(NCCCN1CCN(Cc2ccccc2)CC1)c1csc2c1CCCC2	-6.95%
CC(=O)CCS(=O)(=O)c1ccc(C)c(C)c1	4.57%
Oc1cc(Cc2ccccc2)nc2c(-c3ccc(Cl)cc3)cnn12	6.06%
Cc1ccc2nc3c(cc(C(=O)NCCc4ccccc4)c(=N)n3Cc3ccco3)c(=O)n2c1	5.17%
O=C(O)C1Cn2c(nc3c(c2=O)C2(CCCC2)Cc2ccccc2-3)S1 (stereo not shown)	-7.83%
Cc1ccc2c(c1)cc1c(=O)n(CC(=O)NCCCN3CCOCC3)nc(C)n12	-1.7%
Cc1ccc2[nH]c(C)c(CCNC(=O)c3scc4c3OCCO4)c2c1	4.19%
O=C(Nc1ccccc1)c1cccc(S(=O)(=O)Nc2ccc(Cl)cn2)c1	4.8%
Cc1cc(N2CCC(C)CC2)nc2cccc(O)c12	-4.74%
CCCc1nnc2sc(NC(=O)C(CC)Oc3ccccc3)nn12 (stereo not shown)	-0.659%
CC(C)Oc1ccc(CNC(=O)CCn2c(=O)c3cccn3c3cccnc32)cc1	-4.51%
CCCCN(C)C(=O)c1cnc2ccc(S(=O)(=O)N3CCOCC3)cc2c1O	-5.64%
Clc1ccc(-c2nc3ccccc3[nH]2)c(Cl)c1	-2.63%
CCOc1ccc(N2C(=O)CC(NCc3ccc(OC)cc3)C2=O)cc1 (stereo not shown)	0.189%
Cc1ccccc1CS(=O)(=O)C[C@H](NC(=O)N1CCOCC1)C(=O)N[C@@H](CCc1ccccc1)C(=O)c1nc2ccccc2o1	-5.21%
CC1=C(C(=O)OCCc2ccccc2)C(c2ccc(Cl)c(Cl)c2)CC(=O)N1 (stereo not shown)	3.34%
COC(=O)c1cc(-c2ccc(C)cc2)c2c(=O)[nH]c(=O)n(C)c2n1	1.12%
CC1CCCCN1c1nc2c(S(=O)(=O)c3ccccc3)nnn2c2ccc(Cl)cc12 (stereo not shown)	-4.85%
Cc1ccccc1OCCn1c(C2CCCO2)nc2ccccc21 (stereo not shown)	2.14%
Cc1ccc2oc(=O)c3cnn(CC(=O)N4CCC(Cc5ccccc5)CC4)c3c2c1	3.01%
O=C(c1nc(-c2ccc(Cl)cc2)n2c1CCCCC2)N1CCOCC1	2.36%
Cc1cc(NC(=O)NC(=O)c2ccc(C(F)(F)F)cc2)no1	-3.77%
Cc1nsc2ccc3ccccc3c12	3.36%
C#C/C(C)=C/COC(=O)Cn1c(=O)sc2ccccc21	-3.37%
